The other results are listed elsewhere or left out.

The assay concerns HSkMC (human skeletal muscle cells). The assay can be described thus: cytotoxicity call (relative viability < 0.9). As to conditions: 10 µM.
Take `Cc1ccc(S(=O)(=O)N2C[C@H](O)COC[C@@H]3O[C@@H](CC(=O)NCCN4CCCCC4)CC[C@H]32)cc1`: the cytotoxicity call is “inactive”.

Consider `Cc1ccc(-c2ccc3c(c2)O[C@H](CN(C)C(=O)CN(C)C)[C@@H](C)CN([C@H](C)CO)S3(=O)=O)cc1`, for which the cytotoxicity call was “inactive”.

For the molecule `CO[C@@H](CN(C)S(=O)(=O)c1ccc(Cl)cc1)[C@@H](C)CN([C@@H](C)CO)S(=O)(=O)c1cccc(Cl)c1`, the cytotoxicity call is “inactive”.

Take `C[C@@H]1CCCCO[C@@H](CN(C)C(=O)CCC(F)(F)F)[C@H](C)CN([C@H](C)CO)C(=O)c2cc(NS(=O)(=O)c3ccccc3)ccc2O1`: the cytotoxicity call was “inactive”.

On to `C[C@@H]1CN([C@H](C)CO)C(=O)c2cc(NC(=O)Nc3ccccc3)ccc2O[C@@H](C)CCCCO[C@H]1CN(C)Cc1ccc(Cl)c(Cl)c1`, for which the cytotoxicity call is “active”.

For the molecule `Cc1ccc(-c2ccc3c(c2)O[C@@H](CN(C)C(=O)Nc2ccc(C(F)(F)F)cc2)[C@H](C)CN([C@@H](C)CO)S3(=O)=O)cc1`, the cytotoxicity call was “inactive”.

In the case of `O=C(CCCN1CCN(c2ccccn2)CC1)c1ccc(F)cc1`, the cytotoxicity call is “inactive”.

For the molecule `COc1ccc(NC(=O)N(C)C[C@@H]2Oc3ccc(NC(=O)CCN4CCOCC4)cc3CC(=O)N([C@@H](C)CO)C[C@H]2C)cc1`, the cytotoxicity call was “inactive”.

Take `C[C@@H]1CCCCO[C@@H](CN(C)CC2CC2)[C@@H](C)CN([C@H](C)CO)C(=O)c2cc(NC(=O)NC3CCCCC3)ccc2O1`: the cytotoxicity call is “inactive”.

In the case of `Cc1ccn2c(=O)c(C(=O)O)cnc2c1`, the cytotoxicity call is “inactive”.

Turning to `C=C1C[C@@H]2CC[C@@]34C[C@H]5O[C@H]6[C@@H](O3)[C@H]3O[C@H](CC[C@@H]3O[C@H]6[C@H]5O4)CC(=O)C[C@@H]3[C@@H](OC)[C@@H](C[C@H](O)CN)O[C@H]3C[C@H]3O[C@@H](CC[C@@H]1O2)C[C@@H](C)C3=C`, the cytotoxicity call is “active”.

For `C[C@@H]1CN([C@H](C)CO)C(=O)c2cc(NS(=O)(=O)c3ccc(F)cc3)ccc2O[C@H]1CN(C)S(C)(=O)=O`, the cytotoxicity call was “inactive”.

For `Cc1ccc(S(=O)(=O)Nc2ccc3c(c2)C(=O)N([C@@H](C)CO)C[C@@H](C)[C@H](CN(C)Cc2ccccc2)OCCCC[C@@H](C)O3)cc1`, the cytotoxicity call was “inactive”.

Take `COc1ccc(S(=O)(=O)N(C)C[C@@H]2Oc3c(NS(C)(=O)=O)cccc3C(=O)N([C@@H](C)CO)C[C@H]2C)cc1`: the cytotoxicity call was “inactive”.

`Cc1ccc(S(=O)(=O)Nc2ccc3c(c2)C(=O)N([C@H](C)CO)C[C@H](C)[C@H](CN(C)C(=O)Nc2cccc4ccccc24)OCCCC[C@H](C)O3)cc1`: the cytotoxicity call is “active”.

For `COC(=O)C=CC(C)=CC=CC(C)=CC=CC=C(C)C=CC=C(C)C=CC(=O)O`, the cytotoxicity call was “inactive”.

On to `C[C@H]1CCCCO[C@@H](CN(C)C(=O)Nc2ccccc2)[C@@H](C)CN([C@@H](C)CO)C(=O)c2cc(NC(=O)Nc3ccc4c(c3)OCO4)ccc2O1`, for which the cytotoxicity call is “inactive”.

Turning to `C[C@@H]1CN([C@@H](C)CO)S(=O)(=O)c2ccc(C#C[C@@H](C)O)cc2O[C@H]1CN(C)C(=O)c1ccncc1`, the cytotoxicity call is “inactive”.

On to `C[C@@H]1CN([C@H](C)CO)C(=O)CCCn2nncc2CO[C@@H]1CN(C)C(=O)C1CC1`, for which the cytotoxicity call was “inactive”.

Turning to `COc1cc2c(cc1OC)CN(CCc1ccc(-n3nnc(-c4cc(OC)c(OC)cc4NC(=O)c4cc(=O)c5ccccc5o4)n3)cc1)CC2`, the cytotoxicity call is “inactive”.

For the molecule `C[C@@H]1CCCCO[C@@H](CN(C)C(=O)Nc2cccc3ccccc23)[C@H](C)CN([C@H](C)CO)C(=O)c2cc(NC(=O)Nc3ccc4c(c3)OCO4)ccc2O1`, the cytotoxicity call is “inactive”.

Regarding `C[C@@H]1CN([C@H](C)CO)C(=O)c2cc(NC(=O)Nc3ccc(C(F)(F)F)cc3)ccc2O[C@@H](C)CCCCO[C@H]1CN(C)C`, the cytotoxicity call was “inactive”.

Turning to `C[C@@H]1CN([C@@H](C)CO)C(=O)c2cc(NC(=O)Nc3ccc(C(F)(F)F)cc3)ccc2O[C@H]1CN(C)C(=O)Nc1ccc2c(c1)OCO2`, the cytotoxicity call was “inactive”.

Regarding `C[C@H](C(=O)O)[C@H]1SC(=O)NC1=O`, the cytotoxicity call is “inactive”.

As for `C[C@H](CO)N1C[C@H](C)[C@H](CN(C)C(=O)Nc2ccc3c(c2)OCO3)Oc2ccc(NS(=O)(=O)c3cn(C)cn3)cc2C1=O`, the cytotoxicity call is “inactive”.

For the molecule `CCCNC(=O)C[C@H]1CC[C@H]2[C@@H](COc3ccc(NS(=O)(=O)c4ccccc4C)cc3C(=O)N2C)O1`, the cytotoxicity call was “inactive”.

With `O=C(O)CCCN=C1NC(=O)CC(=O)N1`, the cytotoxicity call was “inactive”.

In the case of `Cc1noc(C)c1NC(=O)N(C)C[C@@H]1Oc2c(NC(=O)c3cnccn3)cccc2C(=O)N([C@@H](C)CO)C[C@H]1C`, the cytotoxicity call is “inactive”.

With `COC1=C2C[C@@H](C)C[C@H](OC)[C@H](O)[C@@H](C)/C=C(\C)[C@H](OC(N)=O)[C@@H](OC)/C=C/C=C(\C)C(=O)NC(=CC1=O)C2=O`, the cytotoxicity call is “active”.

Take `Cl.O=C(c1ccc(OCCN2CCCCC2)cc1)c1c(-c2ccc(O)cc2)sc2cc(O)ccc12`: the cytotoxicity call was “inactive”.

With `COCC(=O)Nc1ccc2c(c1)C(=O)N(C)C[C@@H](OC)[C@@H](C)CN(Cc1ccccc1F)[C@H](C)CO2`, the cytotoxicity call was “inactive”.

On to `COc1ccc(S(=O)(=O)Nc2ccc3c(c2)C(=O)N([C@@H](C)CO)C[C@@H](C)[C@@H](CN(C)C(=O)Nc2c(C)noc2C)OCCCC[C@H](C)O3)cc1`, for which the cytotoxicity call is “inactive”.

With `O=C(O)CNC(=O)c1[nH]nc2ccccc12`, the cytotoxicity call was “inactive”.

Turning to `CNC[C@H]1Oc2c(NS(=O)(=O)c3cn(C)cn3)cccc2C(=O)N([C@@H](C)CO)C[C@@H]1C`, the cytotoxicity call was “inactive”.

Take `Cc1nsc(C(=O)NC[C@H]2CCCO2)n1`: the cytotoxicity call is “inactive”.

`CNC[C@@H]1Oc2c(NS(=O)(=O)c3cn(C)cn3)cccc2C(=O)N([C@@H](C)CO)C[C@@H]1C`: the cytotoxicity call was “inactive”.

`C[C@H](CO)N1C[C@H](C)[C@H](CN(C)C(=O)C2CCCCC2)Oc2cc(C#CC(C)(C)O)ccc2S1(=O)=O`: the cytotoxicity call is “inactive”.

On to `CN(C)/C=C/C(=S)c1cccs1`, for which the cytotoxicity call is “inactive”.

On to `CC1(C)C=Cc2c(c3c(c4c(=O)c(-c5ccc(O)c(O)c5)coc24)OC(C)(C)CC3)O1`, for which the cytotoxicity call is “inactive”.

In the case of `C[C@@H]1CN([C@H](C)CO)C(=O)c2cccc(NS(=O)(=O)c3ccc(F)cc3)c2O[C@H]1CN(C)Cc1ccc(Oc2ccccc2)cc1`, the cytotoxicity call is “inactive”.

The values above are taken from the antibiotic and cytotoxicity screens of Wong et al. (2023).
